Data reported in PMC6334971.
These are yes or no findings as the source states them, for the method shown. Binding seen in cells or lysates may run through a third protein. Some binding calls cover weakened binding; strength is not graded here. For some of these results: Where a sequence is shown, tags or fusion partners need not be part of it.

T1: HA-tagged TvTom40-2 (T. vaginalis TOM 40-2) (Trichomonas vaginalis) (UniProt A2EH93)
T1 sequence: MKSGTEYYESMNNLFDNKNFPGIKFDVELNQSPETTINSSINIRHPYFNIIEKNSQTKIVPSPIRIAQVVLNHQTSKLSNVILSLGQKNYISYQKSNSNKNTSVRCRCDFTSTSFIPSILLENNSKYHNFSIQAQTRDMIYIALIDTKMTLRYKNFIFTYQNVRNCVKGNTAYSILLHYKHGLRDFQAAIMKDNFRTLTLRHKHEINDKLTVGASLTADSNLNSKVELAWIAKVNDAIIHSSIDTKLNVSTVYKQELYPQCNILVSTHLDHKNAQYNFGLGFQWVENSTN


What was measured:
[1] = target: T1, HA-tagged TvTom40-2 (T. vaginalis TOM 40-2) (Trichomonas vaginalis); assay: co-IP; α-HA IP of TvTom40-2-HA from digitonin-lysed hydrogenosomes of double transfectants under crosslinking conditions (DSP); immunoblot with α-V5 and polyclonal α-Sam50
[2] = target: T1, HA-tagged TvTom40-2 (T. vaginalis TOM 40-2) (Trichomonas vaginalis); assay: co-IP; α-HA IP of TvTom40-2-HA from digitonin-lysed hydrogenosomes of double transfectants under native conditions; immunoblot with α-V5 and polyclonal α-Sam50
[3] = target: T1, HA-tagged TvTom40-2 (T. vaginalis TOM 40-2) (Trichomonas vaginalis); assay: co-IP; in vitro import of 35S-labelled TvFdx1-DHFR into hydrogenosomes (TvTom40-2-HA/Tom36-V5 strain) with 10 μM methotrexate, then crosslinking, lysis in 0.5% Triton X-100 and α-HA IP; autoradiography and immunoblot
[4] = target: cytosolic domain of Tom46 with a C-terminal polyhistidine tag (Tom46cd-His) (Trichomonas vaginalis) (UniProt A2FNS9); assay: pull-down; Tom36cd-His or Tom46cd-His on Ni-NTA agarose beads (blocked with 3% BSA) incubated with 35S-labelled in vitro translated proteins and Trichomonas cytosolic extract in 50 mM Tris, 150 mM NaCl pH 7.4, 1 h at 37 °C; eluted with 500 mM imidazole; autoradiography; only the target purified
[5] = target: cytosolic domain of Tom36 with a C-terminal polyhistidine tag (Tom36cd-His) (Trichomonas vaginalis) (UniProt A2DU34); assay: as above

| Molecule | binding [1] | binding [2] | binding [3] | binding [4] | binding [5] |
| --- | --- | --- | --- | --- | --- |
| V5-tagged hydrogenosomal outer membrane protein 19 (Homp19) (from UniProt A2DEL5 1-165) | binds | binds | – | – | – |
| Sam50 (sorting and assembly machinery 50) (from UniProt A2DIG2 1-398) | binds | binds | – | – | – |
| cytochrome b5 (cytosolic, radiolabelled) (protein, UniProt A2DLT3 1-94, [35S]-methionine labelled) MASAQIAWGERMKQLPWVGDITREELAKHNTPEDCWCSYRGEVYNMTPYLAMHPGGPKIICSVAGGDMGELWMKHHPYISPALIAKVKIGRLVK | – | – | – | no binding | no binding |
| V5-tagged Tom22-like protein (protein, UniProt A2D9L3 1-57) MFNLVSRKKFYKKKMMMMPPPQPSKLEQITQIVKETAWVIGTSAFVIIFPIYVATKL | binds | binds | – | – | – |

Results, then the molecule that gave them:

| binding [1] | binding [2] | binding [3] | binding [4] | binding [5] | Molecule |
| --- | --- | --- | --- | --- | --- |
| binds | binds | binds | – | – | V5-tagged Tom36 (from UniProt A2DU34 1-322) |
| binds | binds weakly | – | – | – | V5-tagged Tom46 (from UniProt A2FNS9 1-412) |
